Reference: patent US20230145766A1 (Innovent, published 2023)

T1: IL-2Rβ receptor with an avi tag and an His6 tag at the C-terminus (human, UniProt P14784 27-240, biotin on the avi tag (enzymatic labelling with BirA))
T1 construct: Biotin-labelled and loaded on the SA sensor in the ForteBio assays; also called CD122; IL-2Rβ-His
T1 sequence: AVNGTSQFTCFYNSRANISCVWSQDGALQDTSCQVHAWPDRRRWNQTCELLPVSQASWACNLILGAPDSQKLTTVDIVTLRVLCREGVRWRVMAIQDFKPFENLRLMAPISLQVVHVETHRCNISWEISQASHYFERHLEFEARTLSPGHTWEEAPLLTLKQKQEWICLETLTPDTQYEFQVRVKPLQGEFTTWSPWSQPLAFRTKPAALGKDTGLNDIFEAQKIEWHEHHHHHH

B1: 2154 (Fc fusion)
chain: APASSSTKKTQLQLEHLLLDLQMILNGINNYKNPELEEMLTAKFYMPKKATELKHLQCLEEELKPLEEVLNLAGDASIHDLISNINVIVLQLKGSETTFMCEYADETATIVEFLNRWITFSQSIISTLTGGGGSGGGGS[omitted - human IgG1 Fc with changes]
notes: Format 1 homodimer
B2: 2166 (Fc fusion)
chain: APASSSTKKTQLQLETLLLDLQMILNGINNYKNPELEEMLTAKFYMPKKATELKHLQCLEEELKPLEEVLNLAGDASIHTLISNINVIVLELKGSETTFMCEYADETATIVEFLNRWITFSQSIISTLTGGGGSGGGGS[omitted - human IgG1 Fc with changes]
notes: Format 1 homodimer
B3: 2170 (Fc fusion)
chain: APASSSTKKTQLQLETLLLDLQMILNGINNYKNPELEEMLTAKFYMPKKATELKHLQCLEEELKPLEEVLNLAGDASIHQLISNINVIVLELKGSETTFMCEYADETATIVEFLNRWITFSQSIISTLTGGGGSGGGGS[omitted - human IgG1 Fc with changes]
notes: Format 1 homodimer
B4: 2162 (Fc fusion)
chain: APASSSTKKTQLQLEHLLLDLQMILNGINNYKNPELEEMLTAKFYMPKKATELKHLQCLEEELKPLEEVLNLAGDASIHNLISNINVIVLQLKGSETTFMCEYADETATIVEFLNRWITFSQSIISTLTGGGGSGGGGS[omitted - human IgG1 Fc with changes]
notes: Format 1 homodimer
B5: 2097 (Fc fusion)
chain: APASSSTKKTQLQLETLLLDLQMILNGINNYKNPELEEMLTAKFYMPKKATELKHLQCLEEELKPLEEVLNLAGDASIHDLISNINVIVLELKGSETTFMCEYADETATIVEFLNRWITFSQSIISTLTGGGGSGGGGS[omitted - human IgG1 Fc with changes]
notes: Format 1 homodimer
B6: 2113 (Fc fusion)
chain: APASSSTKKTQLQLEHLLLDLQMILNGINNYKNPELEEMLTAKFYMPKKATELKHLQCLEEELKPLEEVLNLAGDASIHNLISNINVIVLELKGSETTFMCEYADETATIVEFLNRWITFSQSIISTLTGGGGSGGGGS[omitted - human IgG1 Fc with changes]
notes: Format 1 homodimer
B7: 2092 (Fc fusion)
chain: APASSSTKKTQLQLQHLLLDLQMILNGINNYKNPELEEMLTAKFYMPKKATELKHLQCLEEELKPLEEVLNLAGDASIHDLISNINVIVLELKGSETTFMCEYADETATIVEFLNRWITFSQSIISTLTGGGGSGGGGS[omitted - human IgG1 Fc with changes]
notes: Format 1 homodimer
B8: 2158 (Fc fusion)
chain: APASSSTKKTQLQLEHLLLDLQMILNGINNYKNPELEEMLTAKFYMPKKATELKHLQCLEEELKPLEEVLNLAGDASIHDLISNINVIVLELKGSETTFMCEYADETATIVEFLNRWITFSESIISTLTGGGGSGGGGS[omitted - human IgG1 Fc with changes]
notes: Format 1 homodimer
B9: 2115 (Fc fusion)
chain: APASSSTKKTQLQLEHLLLDLQMILNGINNYKNPELEEMLTAKFYMPKKATELKHLQCLEEELKPLEEVLNLAGDASIHQLISNINVIVLELKGSETTFMCEYADETATIVEFLNRWITFSQSIISTLTGGGGSGGGGS[omitted - human IgG1 Fc with changes]
notes: Format 1 homodimer
B10: 2171 (Fc fusion)
chain: APASSSTKKTQLQLETLLLDLQMILNGINNYKNPELEEMLTAKFYMPKKATELKHLQCLEEELKPLEEVLNLAGDASIHDLISNINIIVLELKGSETTFMCEYADETATIVEFLNRWITFSQSIISTLTGGGGSGGGGS[omitted - human IgG1 Fc with changes]
notes: Format 1 homodimer
B11: 2114 (Fc fusion)
chain: APASSSTKKTQLQLEHLLLDLQMILNGINNYKNPELEEMLTAKFYMPKKATELKHLQCLEEELKPLEEVLNLAGDASIHELISNINVIVLELKGSETTFMCEYADETATIVEFLNRWITFSQSIISTLTGGGGSGGGGS[omitted - human IgG1 Fc with changes]
notes: Format 1 homodimer
B12: 2116 (Fc fusion)
chain: APASSSTKKTQLQLEHLLLDLQMILNGINNYKNPELEEMLTAKFYMPKKATELKHLQCLEEELKPLEEVLNLAGDASIHTLISNINVIVLELKGSETTFMCEYADETATIVEFLNRWITFSQSIISTLTGGGGSGGGGS[omitted - human IgG1 Fc with changes]
notes: Format 1 homodimer
B13: 2131 (Fc fusion)
chain: APASSSTKKTQLQLEHLLLDLQMILNGINNYKNPELEEMLTAKFYMPKKATELKHLQCLEEELKPLEEVLNLAGDASIHDLISDINVIVLELKGSETTFMCEYADETATIVEFLNRWITFSQSIISTLTGGGGSGGGGS[omitted - human IgG1 Fc with changes]
notes: Format 1 homodimer
B14: 2169 (Fc fusion)
chain: APASSSTKKTQLQLEHLLLDLQMILNGINNYKNPELEEMLTAKFYMPKKATELKHLQCLEEELKPLEEVLNLAGDASIHNLISNINVIVLELKGSETTFMCEYADETATIVEFLNRWITFSESIISTLTGGGGSGGGGS[omitted - human IgG1 Fc with changes]
notes: Format 1 homodimer
B15: 2168 (Fc fusion)
chain: APASSSTKKTQLQLEHLLLDLQMILNGINNYKNPELEEMLTAKFYMPKKATELKHLQCLEEELKPLEEVLNLAGDASIHTLISNINVIVLELKGSETTFMCEYADETATIVEFLNRWITFSESIISTLTGGGGSGGGGS[omitted - human IgG1 Fc with changes]
notes: Format 1 homodimer
B16: 2096 (Fc fusion)
chain: APASSSTKKTQLQLENLLLDLQMILNGINNYKNPELEEMLTAKFYMPKKATELKHLQCLEEELKPLEEVLNLAGDASIHDLISNINVIVLELKGSETTFMCEYADETATIVEFLNRWITFSQSIISTLTGGGGSGGGGS[omitted - human IgG1 Fc with changes]
notes: Format 1 homodimer
B17: 2141 (Fc fusion)
chain: APASSSTKKTQLQLEHLLLDLQMILNGINNYKNPELEEMLTAKFYMPKKATELKHLQCLEEELKPLEEVLNLAGDASIHDLISNINIIVLELKGSETTFMCEYADETATIVEFLNRWITFSQSIISTLTGGGGSGGGGS[omitted - human IgG1 Fc with changes]
notes: Format 1 homodimer

target: T1, IL-2Rβ receptor with an avi tag and an …; assay: BLI (ForteBio); biotinylated receptor on SA sensor, 100 nM IL-2 mutant molecule in solution, 1:1 model
Method: (§1) The equilibrium dissociation constants (KD) for binding of the IL-2 mutants described above in the present invention to their receptors were measured by biological optical interferometry (ForteBio).
(§2) The ForteBio affinity assay was conducted according to the method (Estep, P et al., High throughput solution Based measurement of antibody-antigen affinity and epitope binding. mAbs, 2013.5(2): p. 270-8) known in the art. […] The kinetic analysis was performed using a 1:1 binding model.
(§3) The expression yields and purity of the IL-2 mutants were improved relative to the wild-type (Y045), and meanwhile, the introduction of the IL-2Rβγ binding interface amino acid mutations led to different levels of reductions in the affinity for IL-2Rβ and IL-2Rβγ.

| Kd [nM] | Binder |
| --- | --- |
| 6.08 | B1 |
| 330 | B2 |
| 49.6 | B3 |
| 37.1 | B4 |
| 13.5 | B5 |
| 13.6 | B6 |
| 2.31 | B7 |
| 6.77 | B8 |
| 16.1 | B9 |
| 15.3 | B10 |
| 11.3 | B11 |
| 17.6 | B12 |
| 11.9 | B13 |
| 24.7 | B14 |
| 23.3 | B15 |
| 13.9 | B16 |
| 7.56 | B17 |

target: T2, IL-2 receptor βγ complex (IL-2Rβ-Fc.Knob / IL-2Rγ-Fc.Hole heterodimer) (human, complex was biotin-labelled enzymatically (BirA); site not stated); assay: as above
T2 construct: Knobs-in-holes Fc heterodimer co-expressed in Expi293 cells; also called IL-2Rβγ; IL-2 receptor βγ protein
Method: as §1, §2, §3

| Kd [nM] | Binder |
| --- | --- |
| 1.72 | B2 |
| 0.861 | B3 |
| 0.313 | B4 |
| 0.118 | B5 |
| 0.247 | B6 |
| 0.153 | B7 |
| 0.358 | B8 |
| 0.459 | B9 |
| 0.158 | B10 |
| 0.172 | B11 |
| 0.374 | B12 |
| 0.467 | B13 |
| 6.68 | B14 |
| 6.97 | B15 |
| 0.112 | B16 |
| 0.112 | B17 |
